Reference: PMC9884267
No constants are given. Whether binding was seen depends on the method and setting. Binding seen in cells or lysates may run through a third protein. Some results given as binding are weak or reduced against the parent protein; the word gives no strength. For part of these data: Sequences can lack the tags named with a protein.

Amino acid sequences for entries named in this document (tags omitted). A change or cut given only in a name is not applied to a line headed by its entry.
UniProt Q92769: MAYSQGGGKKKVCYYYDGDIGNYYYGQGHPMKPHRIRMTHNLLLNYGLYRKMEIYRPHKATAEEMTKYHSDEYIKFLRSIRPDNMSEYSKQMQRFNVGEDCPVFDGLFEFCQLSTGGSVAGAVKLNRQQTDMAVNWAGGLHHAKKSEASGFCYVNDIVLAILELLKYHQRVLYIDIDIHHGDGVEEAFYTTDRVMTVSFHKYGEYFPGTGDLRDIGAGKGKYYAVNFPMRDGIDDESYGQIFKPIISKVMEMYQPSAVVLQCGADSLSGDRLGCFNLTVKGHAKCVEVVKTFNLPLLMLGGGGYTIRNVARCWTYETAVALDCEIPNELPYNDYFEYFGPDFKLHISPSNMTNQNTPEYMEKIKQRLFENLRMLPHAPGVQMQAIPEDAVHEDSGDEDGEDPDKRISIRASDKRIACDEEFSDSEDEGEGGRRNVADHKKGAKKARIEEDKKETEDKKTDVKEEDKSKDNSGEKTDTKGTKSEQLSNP
UniProt Q9UBB5: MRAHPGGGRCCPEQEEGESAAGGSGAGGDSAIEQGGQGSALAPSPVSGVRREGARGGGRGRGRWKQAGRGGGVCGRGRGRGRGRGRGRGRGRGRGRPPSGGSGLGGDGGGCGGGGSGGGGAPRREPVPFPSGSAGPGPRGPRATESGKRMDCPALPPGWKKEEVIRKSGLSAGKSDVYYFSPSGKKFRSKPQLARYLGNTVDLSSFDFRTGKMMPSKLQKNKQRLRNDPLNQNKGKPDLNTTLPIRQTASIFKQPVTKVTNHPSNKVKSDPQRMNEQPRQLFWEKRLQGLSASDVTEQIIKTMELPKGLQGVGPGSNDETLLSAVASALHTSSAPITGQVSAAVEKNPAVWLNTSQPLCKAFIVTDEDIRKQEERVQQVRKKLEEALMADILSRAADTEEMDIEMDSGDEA
UniProt Q14839: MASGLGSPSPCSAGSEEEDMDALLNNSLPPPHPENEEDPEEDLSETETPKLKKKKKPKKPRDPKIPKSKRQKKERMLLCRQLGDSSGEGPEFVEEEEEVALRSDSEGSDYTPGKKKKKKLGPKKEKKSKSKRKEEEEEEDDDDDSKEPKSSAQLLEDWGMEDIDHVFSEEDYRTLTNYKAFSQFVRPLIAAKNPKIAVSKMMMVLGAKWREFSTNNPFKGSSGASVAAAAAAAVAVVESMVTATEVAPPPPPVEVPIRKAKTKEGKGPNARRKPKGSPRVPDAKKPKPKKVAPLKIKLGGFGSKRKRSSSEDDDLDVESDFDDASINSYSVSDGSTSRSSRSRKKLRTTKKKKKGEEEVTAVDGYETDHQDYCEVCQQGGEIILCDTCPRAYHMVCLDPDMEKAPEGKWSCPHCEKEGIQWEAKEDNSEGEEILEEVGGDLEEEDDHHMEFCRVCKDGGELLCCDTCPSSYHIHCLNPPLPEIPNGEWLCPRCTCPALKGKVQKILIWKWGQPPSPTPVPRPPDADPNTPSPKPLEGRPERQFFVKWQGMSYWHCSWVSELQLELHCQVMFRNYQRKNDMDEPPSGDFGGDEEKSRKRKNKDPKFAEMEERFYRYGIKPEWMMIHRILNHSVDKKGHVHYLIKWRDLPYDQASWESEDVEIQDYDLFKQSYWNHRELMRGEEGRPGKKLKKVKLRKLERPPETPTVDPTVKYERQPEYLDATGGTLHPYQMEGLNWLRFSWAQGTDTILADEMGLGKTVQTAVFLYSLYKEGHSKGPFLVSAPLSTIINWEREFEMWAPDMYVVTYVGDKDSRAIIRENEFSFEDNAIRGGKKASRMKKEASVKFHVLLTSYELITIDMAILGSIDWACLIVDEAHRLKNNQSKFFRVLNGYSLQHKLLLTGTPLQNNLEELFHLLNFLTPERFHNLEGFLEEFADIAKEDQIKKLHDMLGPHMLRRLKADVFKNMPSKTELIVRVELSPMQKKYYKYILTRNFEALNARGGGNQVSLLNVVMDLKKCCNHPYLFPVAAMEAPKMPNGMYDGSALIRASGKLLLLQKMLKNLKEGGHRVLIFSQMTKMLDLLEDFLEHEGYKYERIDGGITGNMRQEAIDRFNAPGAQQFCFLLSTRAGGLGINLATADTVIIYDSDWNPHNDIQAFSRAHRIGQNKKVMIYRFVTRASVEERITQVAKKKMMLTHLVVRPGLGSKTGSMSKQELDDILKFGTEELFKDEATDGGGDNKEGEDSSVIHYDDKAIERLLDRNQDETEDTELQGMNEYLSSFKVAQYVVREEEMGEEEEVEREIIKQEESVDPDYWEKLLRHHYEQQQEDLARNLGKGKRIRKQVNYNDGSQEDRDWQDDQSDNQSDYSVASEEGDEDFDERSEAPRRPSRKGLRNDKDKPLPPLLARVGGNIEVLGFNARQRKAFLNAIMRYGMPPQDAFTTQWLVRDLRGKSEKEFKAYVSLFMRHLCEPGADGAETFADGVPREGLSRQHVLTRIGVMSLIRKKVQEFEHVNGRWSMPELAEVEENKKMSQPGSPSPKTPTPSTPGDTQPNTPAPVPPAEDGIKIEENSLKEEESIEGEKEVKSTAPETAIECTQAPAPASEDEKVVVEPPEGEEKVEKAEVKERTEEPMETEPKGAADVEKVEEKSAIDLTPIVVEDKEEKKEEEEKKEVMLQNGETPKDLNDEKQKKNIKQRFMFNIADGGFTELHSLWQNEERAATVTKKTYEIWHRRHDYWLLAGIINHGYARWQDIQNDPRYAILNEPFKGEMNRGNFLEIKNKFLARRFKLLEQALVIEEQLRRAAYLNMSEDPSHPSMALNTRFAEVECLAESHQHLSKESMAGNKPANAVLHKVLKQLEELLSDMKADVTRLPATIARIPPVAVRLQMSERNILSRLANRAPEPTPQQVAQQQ
UniProt Q13547: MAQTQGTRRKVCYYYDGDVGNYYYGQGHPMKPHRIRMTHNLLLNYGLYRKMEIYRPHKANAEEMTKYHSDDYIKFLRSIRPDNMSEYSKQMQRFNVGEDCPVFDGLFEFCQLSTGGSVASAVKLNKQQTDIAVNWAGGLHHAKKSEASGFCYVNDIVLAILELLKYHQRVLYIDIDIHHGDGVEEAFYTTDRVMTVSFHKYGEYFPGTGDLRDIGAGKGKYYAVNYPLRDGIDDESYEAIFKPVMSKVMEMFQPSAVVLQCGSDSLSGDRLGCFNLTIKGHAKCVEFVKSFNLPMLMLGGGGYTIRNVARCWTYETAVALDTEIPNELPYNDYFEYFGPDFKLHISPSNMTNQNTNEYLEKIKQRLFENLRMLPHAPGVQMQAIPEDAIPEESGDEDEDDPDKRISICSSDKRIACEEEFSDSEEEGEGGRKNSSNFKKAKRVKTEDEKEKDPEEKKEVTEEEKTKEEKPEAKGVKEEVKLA
UniProt Q09028: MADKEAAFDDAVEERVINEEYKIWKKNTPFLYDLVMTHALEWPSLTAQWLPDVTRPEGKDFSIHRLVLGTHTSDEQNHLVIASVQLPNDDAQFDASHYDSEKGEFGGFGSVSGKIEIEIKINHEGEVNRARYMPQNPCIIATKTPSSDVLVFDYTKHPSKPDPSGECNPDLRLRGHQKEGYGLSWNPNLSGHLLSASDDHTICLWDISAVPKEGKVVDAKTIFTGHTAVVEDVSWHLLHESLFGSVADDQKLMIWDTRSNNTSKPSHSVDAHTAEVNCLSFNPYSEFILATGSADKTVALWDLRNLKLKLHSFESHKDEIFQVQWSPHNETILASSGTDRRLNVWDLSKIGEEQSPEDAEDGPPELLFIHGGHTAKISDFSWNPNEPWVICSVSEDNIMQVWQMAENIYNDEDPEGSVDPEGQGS

T1: GFP-HMG20A, expressed in HEK293 (Expi293F) cells (human), Q9NP66
T1 chain: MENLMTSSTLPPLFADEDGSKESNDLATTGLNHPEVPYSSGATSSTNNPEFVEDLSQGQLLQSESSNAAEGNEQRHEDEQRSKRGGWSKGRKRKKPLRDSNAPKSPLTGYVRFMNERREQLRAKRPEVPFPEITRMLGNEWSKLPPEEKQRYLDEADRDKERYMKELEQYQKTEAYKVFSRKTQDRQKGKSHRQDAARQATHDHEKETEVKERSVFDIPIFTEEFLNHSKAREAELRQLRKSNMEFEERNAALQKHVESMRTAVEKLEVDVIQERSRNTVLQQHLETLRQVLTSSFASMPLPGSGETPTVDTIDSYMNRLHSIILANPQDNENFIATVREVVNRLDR


Each molecule was assayed against GFP-HMG20A (High Mobility Group 20A), stably expressed in HeLa Kyoto cells (human) (UniProt Q9NP66) (assay: co-IP; mononucleosome IP: MNase-digested chromatin of HeLaK cells stably expressing the GFP fusion, GFP-TRAP beads overnight at 4 °C, washes with 150 mM NaCl, immunoblot of endogenous proteins). Details: not given.

Row | binding | Molecule
1 | binds | HDAC2 (from UniProt Q92769 1-488)
2 | binds | MBD2, endogenous in HeLa Kyoto cells (from UniProt Q9UBB5 1-411)
3 | binds | HMG20B (protein, UniProt Q9P0W2 1-317) MSHGPKQPGAAAAPAGGKAPGQHGGFVVTVKQERGEGPRAGEKGSHEEEPVKKRGWPKGKKRKKILPNGPKAPVTGYVRFLNERREQIRTRHPDLPFPEITKMLGAEWSKLQPTEKQRYLDEAEREKQQYMKELRAYQQSEAYKMCTEKIQEKKIKKEDSSSGLMNTLLNGHKGGDCDGFSTFDVPIFTEEFLDQNKAREAELRRLRKMNVAFEEQNAVLQRHTQSMSSARERLEQELALEERRTLALQQQLQAVRQALTASFASLPVPGTGETPTLGTLDFYMARLHGAIERDPAQHEKLIVRIKEILAQVASEHL
4 | binds | zinc finger protein ZNF512B (protein, UniProt Q96KM6 1-892) MTDPFCVGGRRLPGSSKSGPGKDGSRKEVRLPMLHDPPKMGMPVVRGGQTVPGQAPLCFDPGSPASDKTEGKKKGRPKAENQALRDIPLSLMNDWKDEFKAHSRVKCPNSGCWLEFPSIYGLKYHYQRCQGGAISDRLAFPCPFCEAAFTSKTQLEKHRIWNHMDRPLPASKPGPISRPVTISRPVGVSKPIGVSKPVTIGKPVGVSKPIGISKPVSVGRPMPVTKAIPVTRPVPVTKPVTVSRPMPVTKAMPVTKPITVTKSVPVTKPVPVTKPITVTKLVTVTKPVPVTKPVTVSRPIVVSKPVTVSRPIAISRHTPPCKMVLLTRSENKAPRATGRNSGKKRAADSLDTCPIPPKQARPENGEYGPSSMGQSSAFQLSADTSSGSLSPGSRPSGGMEALKAAGPASPPEEDPERTKHRRKQKTPKKFTGEQPSISGTFGLKGLVKAEDKARVHRSKKQEGPGPEDARKKVPAAPITVSKEAPAPVAHPAPGGPEEQWQRAIHERGEAVCPTCNVVTRKTLVGLKKHMEVCQKLQDALKCQHCRKQFKSKAGLNYHTMAEHSAKPSDAEASEGGEQEERERLRKVLKQMGRLRCPQEGCGAAFSSLMGYQYHQRRCGKPPCEVDSPSFPCTHCGKTYRSKAGHDYHVRSEHTAPPPEEPTDKSPEAEDPLGVERTPSGRVRRTSAQVAVFHLQEIAEDELARDWTKRRMKDDLVPETARLNYTRPGLPTLNPQLLEAWKNEVKEKGHVNCPNDCCEAIYSSVSGLKAHLASCSKGAHLAGKYRCLLCPKEFSSESGVKYHILKTHAENWFRTSADPPPKHRSQDSLVPKKEKKKNLAGGKKRGRKPKERTPEEPVAKLPPRRDDWPPGCRDKGARGSTGRKVGVSKAPEK

These molecules were tested against GFP-HMG20A, expressed in HEK293 (Expi293F) cells (human) (UniProt Q9NP66) (assay: co-IP; HEK Expi293F cells co-transfected with GFP-HMG20A (or its deletions) and FLAG- or HA-tagged NuRD subunits; lysis in 500 mM NaCl with DNase and RNase; capture on GFP nanobody bound to streptavidin beads, elution with biotin, immunoblot with anti-FLAG, anti-HA or anti-GFP). Details: not given.

Row | binding | Molecule
5 | no binding | FLAG-CHD4-C-terminus (CHD4 C-terminal domains, residues 1230-1912) (from UniProt Q14839 1230-1912) (domain or fragment)
6 | binds | HDAC1-FLAG (from UniProt Q13547 1-482)

More lines, now with the values behind:

Row | Molecule | binding
7 | HA-MBD2 (from UniProt Q9UBB5 1-411) | binds
8 | FLAG-CHD4-N-terminus (CHD4 HMG box, residues 1-355) (from UniProt Q14839 1-355) (domain or fragment) | no binding
9 | FLAG-CHD4 (from UniProt Q14839 1-1912) | binds
10 | FLAG-RBBP4 (from UniProt Q09028 1-425) | no binding
11 | FLAG-CHD4-middle domain (CHD4 DNA translocase, residues 343-1230) (from UniProt Q14839 343-1230) (domain or fragment) | binds

Biological target: T1, GFP-HMG20A, expressed in HEK293 …
Assay: as above
Details: remark: other sources report otherwise

Row | binding | Molecule
12 | binds | FLAG-MTA2, O94776 1-668 (protein) MAANMYRVGDYVYFENSSSNPYLVRRIEELNKTANGNVEAKVVCLFRRRDISSSLNSLADSNAREFEEESKQPGVSEQQRHQLKHRELFLSRQFESLPATHIRGKCSVTLLNETDILSQYLEKEDCFFYSLVFDPVQKTLLADQGEIRVGCKYQAEIPDRLVEGESDNRNQQKMEMKVWDPDNPLTDRQIDQFLVVARAVGTFARALDCSSSIRQPSLHMSAAAASRDITLFHAMDTLQRNGYDLAKAMSTLVPQGGPVLCRDEMEEWSASEAMLFEEALEKYGKDFNDIRQDFLPWKSLASIVQFYYMWKTTDRYIQQKRLKAAEADSKLKQVYIPTYTKPNPNQIISVGSKPGMNGAGFQKGLTCESCHTTQSAQWYAWGPPNMQCRLCASCWIYWKKYGGLKTPTQLEGATRGTTEPHSRGHLSRPEAQSLSPYTTSANRAKLLAKNRQTFLLQTTKLTRLARRMCRDLLQPRRAARRPYAPINANAIKAECSIRLPKAAKTPLKIHPLVRLPLATIVKDLVAQAPLKPKTPRGTKTPINRNQLSQNRGLGGIMVKRAYETMAGAGVPFSANGRPLASGIRSSSQPAAKRQKLNPADAPNPVVFVATKDTRALRKALTHLEMRRAARRPNLPLKVKPTLIAVRPPVPLPAPSHPASTNEPIVLED
